# The inconclusive results got no clear call from the source; some entries with a clear call stand among them for comparison. Potencies of inconclusive entries are left out as doubtful fits. Activity calls are given as the source filed them. Calls follow the shape of the dose curve; as a rule, active = well fitted curve in the direction sought with a large enough effect in the repeat runs; inconclusive = weak or mixed curves; inactive = no such curve, though single readings can be large; an effect the other way counts as inactive or inconclusive.
# Experiment: A CellTox Green Cytotoxicity Assay to monitor cytotoxicity in HEK293 cells - 8 hour (AID 1224884); also: nearly all actives have a fitted effect of over 35% in size
# Conditions: CellTox Green fluorescence; series mostly up to 76.8 µM
# In short: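 Nonlytic real-time cytotoxicity: HEK293 + CellTox Green reagent plated, 5 h preincubation, pintool compound addition (23 nL in DMSO), 37 C for 40 h, fluorescence measured at successive time points.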
# Potency is read from the fitted curve at half-maximal effect; tags tell the direction and shape of the fitted curve.
row,Structure (SMILES),Potency
1,O=C(O)c1ccccc1OP(=O)(O)O,inactive
2,Cc1cc(S(=O)(=O)O)c(N)cc1Cl,inactive
3,CCCCC(CC)COP(=O)(OCC(CC)CCCC)OCC(CC)CCCC (stereo unspecified),inactive
4,C#CC(O)C(CC)CCCC (stereo unspecified),"inconclusive [activator, single point]"
5,CN(C)C(=N)N=C(N)N,"inconclusive [activator, partial curve]"
6,Cc1occc1S,"inconclusive [activator, single point]"

# Experiment: qHTS RealTime-Glo MT Cell Viability Assay in HepG2 cells - 16 hour (AID 1224885); also: nearly all actives have a fitted effect of over 50% in size
# Conditions: RealTime-Glo luminescence; series mostly up to 76.8 µM
# In short: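 HepG2 cells were seeded at 600 cells/well together with NanoLuc luciferase and a cell-permeant prosubstrate, preincubated 5 h at 37 C/5% CO2, then pin-dosed with compounds in DMSO. Nonlytic luminescence from viable cells was read at each time point.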
row,Structure (SMILES),Potency
1,COC(=O)C1=C(C)NC(C)=C(C(=O)OCCCN2CCC(c3ccccc3)(c3ccccc3)CC2)C1c1cccc([N+](=O)[O-])c1 (stereo unspecified),"inconclusive [cytotoxic, partial curve]"
2,CC(C(=O)O)c1ccc(CC2CCCC2=O)cc1 (stereo unspecified),inactive
3,CC(C)OC=O,inactive
4,CC(O)C#CC(C)O (stereo unspecified),"inconclusive [cytotoxic, single point]"
5,COCCCC/C(=N\OCCN)c1ccc(C(F)(F)F)cc1,inactive
6,CCCCN(CCCC)CC(O)c1cc(Cl)cc2c1-c1ccc(Cl)cc1/C2=C/c1ccc(Cl)cc1 (stereo unspecified),"inconclusive [cytotoxic, single point]"
7,COC(=O)C1=C(C)NC(COC(N)=O)=C(C(=O)OC(C)C)C1c1cccc(Cl)c1Cl (stereo unspecified),active: 23.9 µM
8,CCCCCCOc1ccc(O)cc1,"inconclusive [cytotoxic, partial curve]"
9,C#C[C@]1(O)CC[C@H]2[C@@H]3CCc4cc(OC5CCCC5)ccc4[C@H]3CC[C@@]21C,"inconclusive [cytotoxic, partial curve]"

# Experiment: qHTS RealTime-Glo MT Cell Viability Assay in HEK293 cells - 24 hour (AID 1224886); also: nearly all actives have a fitted effect of over 50% in size
# Conditions: RealTime-Glo luminescence; series mostly up to 76.8 µM
# In short: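 HEK293 cells were seeded at 600 cells/well together with NanoLuc luciferase and cell-permeant prosubstrate, preincubated 5 h at 37 C/5% CO2, then given compound in DMSO by pintool. Luminescence from viable-cell prosubstrate reduction was read repeatedly over 40 h.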
row,Structure (SMILES),Potency
1,Cc1ccc(NC(=O)c2ccc(CN3CCN(C)CC3)cc2)cc1Nc1nccc(-c2cccnc2)n1,active: 21.3 µM
2,O=C(O)c1cc(O)c2c(c1)C(=O)c1cccc(O)c1C2=O,inactive
3,C=C[C@@]1(C)CC(=O)[C@]2(O)[C@@]3(C)[C@@H](O)CCC(C)(C)[C@@H]3[C@H](O)[C@H](OC(C)=O)[C@@]2(C)O1,"inconclusive [cytotoxic, single point]"
4,NNc1nc(-c2ccc(N)cc2)cs1,"inconclusive [cytotoxic, partial curve]"
5,CC(O)C#CC(C)O (stereo unspecified),"inconclusive [cytotoxic, single point]"
6,CC(=O)OCC=C(C)C,inactive
7,COCCCC/C(=N\OCCN)c1ccc(C(F)(F)F)cc1,"inconclusive [cytotoxic, partial curve]"
8,CCCCOc1ccc(CC(=O)NO)cc1,"inconclusive [cytotoxic, partial curve]"
9,O=C1CCCc2c(O)cccc21,inactive
10,Cc1cc2c(cc1C(F)(F)F)N(C(=O)Nc1ccc(Oc3cccnc3C)nc1)CC2,"inconclusive [cytotoxic, full curve]"
11,C[N+](C)(C)CCCCCC[N+](C)(C)C,inactive
12,COC(=O)C1=C(C)NC(COC(N)=O)=C(C(=O)OC(C)C)C1c1cccc(Cl)c1Cl (stereo unspecified),active: 26.8 µM
13,COc1cc(C(C)C)c2c(c1)S(=O)(=O)N(COc1cc(=O)n3cccc(OCCN4CCCCC4)c3n1)C2=O,"inconclusive [rising, full curve]"
14,Cc1[nH]c(=O)c(C#N)cc1-c1ccncc1,"inconclusive [cytotoxic, partial curve, poor fit]"
15,C#C[C@]1(O)CC[C@H]2[C@@H]3CCc4cc(OC5CCCC5)ccc4[C@H]3CC[C@@]21C,"inconclusive [cytotoxic, partial curve]"
16,Cc1ccc(CCn2c3c(c4cc(Cl)ccc42)CN(C)CC3)cn1,active: 9.52 µM

# Experiment: qHTS RealTime-Glo MT Cell Viability Assay in HEK293 cells - 8 hour (AID 1224887); also: nearly all actives have a fitted effect of over 50% in size
# Conditions: RealTime-Glo luminescence; series mostly up to 76.8 µM
# In short: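 Cells were seeded together with NanoLuc luciferase and a prosubstrate that viable cells reduce to a luciferase substrate. After a 5 h incubation at 37 C/5% CO2, compounds were added and luminescence was measured repeatedly during 40 h of treatment.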
row,Structure (SMILES),Potency
1,COC(=O)C1=C(C)NC(C)=C(C(=O)OCCCN2CCC(c3ccccc3)(c3ccccc3)CC2)C1c1cccc([N+](=O)[O-])c1 (stereo unspecified),active: 16.9 µM
2,c1ccc2cc(Nc3ccc(Nc4ccc5ccccc5c4)cc3)ccc2c1,inactive
3,Cc1ccc(NC(=O)c2ccc(CN3CCN(C)CC3)cc2)cc1Nc1nccc(-c2cccnc2)n1,"inconclusive [cytotoxic, partial curve]"
4,CC(=O)Nc1ccc(CC(=O)O)cc1,inactive
5,CCCCOc1ccc(CC(=O)NO)cc1,active: 2.13 µM
6,CC1(C)NC(=O)NC1=O,inactive
7,Cc1cccc(C)c1NC(=O)CN1CCN(CCCC(c2ccc(F)cc2)c2ccc(F)cc2)CC1,active: 10.7 µM
8,COC(=O)C1=C(C)NC(COC(N)=O)=C(C(=O)OC(C)C)C1c1cccc(Cl)c1Cl (stereo unspecified),"inconclusive [cytotoxic, single point]"
9,Oc1ccc(CCNCCCCCCNCCc2ccccc2)cc1O,"inconclusive [cytotoxic, single point]"
10,c1ccc2c(c1)ccc1cc3c(ccc4ccccc43)cc12,inactive
11,COc1cc(C(C)C)c2c(c1)S(=O)(=O)N(COc1cc(=O)n3cccc(OCCN4CCCCC4)c3n1)C2=O,"inconclusive [cytotoxic, single point]"
12,COc1ccc(-c2nc3ccc(C4=NNC(=O)CC4C)cc3[nH]2)cc1 (stereo unspecified),"inconclusive [cytotoxic, partial curve]"
13,C#C[C@]1(O)CC[C@H]2[C@@H]3CCc4cc(OC5CCCC5)ccc4[C@H]3CC[C@@]21C,"inconclusive [cytotoxic, partial curve]"
14,Cc1ccc(CCn2c3c(c4cc(Cl)ccc42)CN(C)CC3)cn1,"inconclusive [cytotoxic, partial curve]"
15,N#CSc1ccc(N)c([N+](=O)[O-])c1,"inconclusive [cytotoxic, partial curve]"
